Measured values: PubChem BioAssay AID1346428 (National Center for Advancing Translational Sciences (NCATS), 2018)
Among all 48,000 compounds or so, about 1,200 (2.5%) were called active. About 2% were inconclusive and are not listed.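 How the source made its calls: active means activation of at least 60% and not above a set upper limit (about 1 call in 100 departs from these limits); inconclusive means activation of 40% to 60%, or above that upper limit; inactive means activation under 40%.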 This is one part of the list.

Each compound was assayed against Probable G-protein coupled receptor 32 (Homo sapiens) (UniProt O75388) (assay: qHTS for Agonists of Human Resolvin D1 Receptor DRV1). Settings: CHO-K1 GPR32 beta-arrestin PathHunter luminescence, 90 min; at 76.9 µM; hits give high values; zero percent set by DMSO-only wells.
Summary of the method: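 GPR32 activation in stably transfected CHO-K1 cells, detected as beta-arrestin recruitment by enzyme-fragment complementation. Compound exposure: 90 min, 37 °C.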
Further: 0% is about no effect.

UniProt O75388, sequence (O75388 whole entry, looked up, the tested form may be a part): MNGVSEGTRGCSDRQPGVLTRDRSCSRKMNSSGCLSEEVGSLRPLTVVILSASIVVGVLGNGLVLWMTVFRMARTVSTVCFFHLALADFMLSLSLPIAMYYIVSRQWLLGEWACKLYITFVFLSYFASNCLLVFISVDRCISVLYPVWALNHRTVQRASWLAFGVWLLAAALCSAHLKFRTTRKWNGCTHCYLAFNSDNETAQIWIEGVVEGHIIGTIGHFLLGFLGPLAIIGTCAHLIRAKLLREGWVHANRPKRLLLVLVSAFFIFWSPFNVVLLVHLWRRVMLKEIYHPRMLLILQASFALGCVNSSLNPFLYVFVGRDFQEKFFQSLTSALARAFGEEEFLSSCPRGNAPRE

Row | Compound | activation
1 | CC(C)OCCCNC(=O)Cn1ccc2cc(S(=O)(=O)N3CCCCCC3)ccc21 | inactive: -4.42%
2 | COc1ccc(CC(=O)NCCc2csc(-c3cccc(C)c3)n2)cc1 | inactive: -9.09%
3 | Cc1nc(-c2ccccc2)sc1-c1ccc(SCC(=O)NCc2ccc(Cl)cc2)nn1 | inactive: -0.791%
4 | CC(=O)c1cccc(NC(=O)CC(c2ccc(C)cc2)N2Cc3ccccc3C2=O)c1 (stereo unspecified) | inactive: -0.931%
5 | Cc1ccc(CCNS(=O)(=O)c2ccc3c(c2)CC(C)N3C(=O)C2CCC2)cc1 (stereo unspecified) | inactive: 32.4%
6 | Cc1ccc(-n2c(=O)[nH]c3cc(C(=O)NCc4ccccc4)ccc3c2=O)cc1 | inactive: -1.6%
7 | Cc1oc(-c2ccccc2Cl)nc1Cn1c(SCc2cccc(F)c2)nc2cccnc21 | inactive: -25.8%
8 | CN(Cc1ccccc1)c1ccc(-c2nc(-c3ccccn3)no2)cc1[N+](=O)[O-] | inactive: 29.8%
9 | COc1cccc(N2CCN(C(=O)c3cc4cc5cc(C)ccc5nc4s3)CC2)c1 | inactive: -11.8%
10 | COc1ccc(-c2nc(CSCC(=O)NCCc3ccccc3)c(C)o2)cc1 | inactive: -15.3%
11 | CCc1ccc(-n2c(SCc3ccccc3Cl)nc3[nH]ncc3c2=O)cc1 | inactive: -5.11%
12 | COc1cc(OC)c(NC(=O)CCc2c(C)nc3ncnn3c2C)cc1Cl | inactive: 2.62%
13 | CCn1c(CN2CCC(C)CC2)nc2cc(NC(=O)COc3ccc(Cl)c(C)c3)ccc21 | inactive: 26.8%
14 | CCC(=O)N1c2ccccc2CC1C(=O)NCc1ccccc1Cl (stereo unspecified) | inactive: -6.83%
15 | Cc1cccc(NC(=O)CCn2cnnn2)c1C | inactive: -3.26%
16 | Cc1ccc(CNC(=O)c2ccc(Cn3c(=O)c4ccccc4n(CC(=O)Nc4ccc(C)cc4)c3=O)cc2)cc1 | inactive: -28.7%
17 | Cc1cccc(NC(=O)Cn2cc(C(=O)c3ccco3)c3ccccc32)c1 | inactive: -3.64%
18 | COc1ccc(Cn2cc(S(=O)(=O)c3ccc(Cl)cc3)c(=O)c3cc4c(cc32)OCO4)cc1 | inactive: 5.35%
19 | O=C(NC1(C(F)(F)F)C(=O)Nc2c1c(=O)[nH]c(=O)n2-c1ccc(Cl)cc1)c1ccccc1F (stereo unspecified) | inactive: -1.28%
20 | Cc1ccccc1OCCn1c(-c2ccc(Cl)cc2)nc2ccccc2c1=O | inactive: 2.05%
21 | C=CC(C)=C[C@@]1(C)SC(=O)C(C)=C1O | inactive: -13.6%
22 | O=C(OCc1cc(=O)n2nc(C3CCCCC3)sc2n1)c1ccc(F)cc1 | inactive: 23.6%

Row | Compound | activation
23 | CCOc1ccc(NC(=O)CC2C(=O)N(c3ccc(Cl)cc3)C(=O)N2Cc2cccs2)cc1 (stereo unspecified) | inactive: -20%
24 | COc1cccc(NC(=O)c2ccc(-c3nc(COc4ccccc4)c(C)o3)cc2)c1 | inactive: -10.6%
25 | CCc1ccccc1Nc1nn2c(=O)c3ccc(C(=O)NCCCOC(C)C)cc3nc2s1 | inactive: -8.23%
26 | CCCCN(CC)C(=O)CSc1c2c(nc3ccc(Cl)cc13)CCCC2 | inactive: -12.4%
27 | O=C(Nc1cccc(Cl)c1)c1ccc2c(c1)CCN2S(=O)(=O)c1ccccc1 | inactive: -2.8%
28 | COc1ccc(-c2noc(-c3cccnc3N3CCN(c4ccc(OC)cc4)CC3)n2)cc1 | inactive: -10.6%
29 | COC(=O)c1c(NC(=O)/C(C#N)=C/c2ccccc2)sc2c1CCC2 | inactive: 3.76%
30 | CCOc1ccc(NC(=O)c2sc3nc4c(c(-c5ccc(OC)cc5)c3c2N)C(=O)CC(C)(C)C4)cc1 | inactive: -10.7%
31 | CCOc1ccc(-n2cc(-c3ccccc3)c3c(N4CCN(c5ccccc5OC)CC4)ncnc32)cc1 | inactive: -17.9%
32 | COc1ccccc1Nc1cc(C(=O)NC2CCC(C)CC2)c2ccccc2n1 (stereo unspecified) | inactive: -4.68%
33 | CCOC(=O)c1c(C)[nH]c(C)c1S(=O)(=O)N1CCCC(C(=O)NCc2ccc(Cl)cc2)C1 (stereo unspecified) | inactive: 7.23%
34 | CCOCCCNC(=O)CN1C(=O)COc2ccc(S(=O)(=O)N3CCCC3)cc21 | inactive: -2.21%
35 | Cc1ccc(CNC(=O)c2c[nH]n3c(=O)c(Cc4ccc(Cl)cc4)c(C)nc23)cc1 | inactive: 5.28%
36 | CC(=O)c1ccc(NS(=O)(=O)c2ccc3[nH]c4c(c3c2)CCCC4)cc1 | inactive: 19.6%
37 | Cn1c(=O)oc2cc(S(=O)(=O)N3CCCC(C(=O)NCCc4ccccc4)C3)ccc21 (stereo unspecified) | inactive: -5.74%
38 | Cc1ccccc1C(=O)Nc1c(C)nc2ccccn2c1=O | inactive: -4.68%
39 | Cc1c(C)c2c(c(C)c1OC(=O)CCC(=O)OCCO)CC[C@@](C)(CCC[C@H](C)CCC[C@H](C)CCCC(C)C)O2 | inactive: 0.0016%
40 | CCc1ccc(S(=O)(=O)c2cn(Cc3ccccc3F)c3cc(OC)c(OC)cc3c2=O)cc1 | inactive: -20.2%
41 | COc1ccc(NC(=O)CSc2nnc(NC(=O)NC3CCCCC3)s2)cc1OC | inactive: -2.41%
42 | CCOc1ccc(C2c3[nH]c4ccccc4c3CCN2C(=O)CSCc2ccc(F)cc2)cc1 (stereo unspecified) | inactive: -33.6%
43 | Cc1cccc(CNC(=O)c2ccc3nc(Cc4ccccc4)oc3c2)c1 | inactive: -25.3%
44 | O=C(NCCc1ccccc1)c1nn(-c2ccc(F)cc2)nc1CO | inactive: -6.41%

Row | Compound | activation
45 | Cc1ccc(CCNC(=O)c2c3c(nc4ccccc24)C(=O)N(C2CCCCC2)C3)cc1 | inactive: -18.7%
46 | Cc1cc(S(=O)(=O)NCC(c2ccco2)S(=O)(=O)c2cccs2)ccc1F (stereo unspecified) | inactive: -9.48%
47 | Cc1cccc(NC(=O)CS(=O)(=O)c2cccc3nsnc23)c1 | inactive: 8.94%
48 | CCOc1ccc(NC(=O)CSc2nnc(-c3ccc(OCC)cc3)o2)cc1 | inactive: -7.2%
49 | Cc1ccc(NC(=O)Cn2c(=O)n(Cc3nc(-c4ccccc4)no3)c(=O)c3ccccc32)cc1C | inactive: 1.43%
50 | COC(=O)c1ccccc1NC(=O)CSc1nc(=O)cc(N)n1-c1ccccc1 | inactive: -7.5%
51 | CCOc1ccc(CCNC(=O)CCCc2nnc3n(CC)c(=O)c4sccc4n23)cc1OCC | inactive: 1.74%
52 | Cc1cccc(NC(=O)COc2ccc(-c3nn(C)c(=O)c4ccccc34)cc2)c1 | inactive: 46.6%
53 | Cc1coc2cc3oc(=O)c(CC(=O)NCc4cccc(Cl)c4)c(C)c3cc12 | inactive: 25.4%
54 | Cc1ccc(CNC(=O)c2c(-c3ccccc3Cl)noc2C)o1 | inactive: -18.7%
55 | COc1cc(OC)c(NC(=O)CN2CCCN(Cc3ccccc3C)S2(=O)=O)cc1Cl | inactive: 27.7%
56 | COc1ccc(CNC(=O)Nc2ccc3c(c2)N(C)C(=O)c2ccccc2S3)cc1OC | inactive: -8.92%
57 | CN1CC(=O)NC1=N | inactive: 11.7%
58 | COc1cc2ncc(C(=O)c3ccc(C)cc3)c(N3CCCCC3)c2cc1OC | inactive: 11%
59 | CC(CNC(=O)c1nnc(Cc2ccc(F)cc2)o1)c1ccccc1 (stereo unspecified) | inactive: -21.8%
60 | Cc1ccc(-n2nc3c(=O)n(CC(=O)NCCC(C)C)nc(C)c3c2C)cc1 | inactive: 2.58%
61 | Nc1ncn([C@H]2C[C@H](O)[C@@H](CO)O2)c(=O)n1 | inactive: -20.3%
62 | NCCCCNCCCN | inactive: 1.48%
63 | COCCCNC(=O)Cn1c(=O)nc(-c2ccccc2)c2ccccc21 | inactive: -9.51%
64 | CCOc1ccc(CCNC(=O)c2cc(C)nc3c2c(C)nn3-c2cccc(F)c2)cc1 | inactive: -17.1%
65 | Cc1cccn2c(=O)c(C(=O)NCCc3ccccc3)cnc12 | inactive: -11.2%
66 | COc1ccc(Cn2cc(C(=O)c3ccc(C)c(C)c3)c(=O)c3ccccc32)cc1 | inactive: 7.06%

Row | Compound | activation
67 | CCCCC12CN3CC(C)(CN(C1)C3c1ccc(O)c(OC)c1)C2=O (stereo unspecified) | inactive: -20.2%
68 | O=C(Cn1cc(S(=O)(=O)Cc2cccc(Cl)c2)c2ccccc21)Nc1ccccc1Cl | inactive: -10.9%
69 | COc1cccc(NC(=O)CSc2nccn2C2CCCC2)c1 | inactive: -7.4%
70 | C[C@@H](c1ncncc1F)C(O)(Cn1cncn1)c1ccc(F)cc1F (stereo partly specified) | inactive: 7.22%
71 | COc1ccc(CNCCC(c2ccc3c(c2)OCO3)c2ccccc2OC)cc1 (stereo unspecified) | inactive: -14.1%
72 | O=C(NC1CCCC1)c1ccc2c(c1)N(Cc1ccccc1)C(=O)c1ccccc1S2 | inactive: -30.6%
73 | CC1CCN(c2nc3ccc(C(=O)NCc4ccccc4Cl)cc3s2)CC1 | inactive: 16.2%
74 | COc1ccc(C2=C(N3CCN(c4cccc(C)c4)C(C)C3)c3ccccc3C2=O)cc1 (stereo unspecified) | inactive: -8.88%
75 | Cc1ccc(F)cc1NC(=O)Cn1c(C)cc(C)c(C#N)c1=O | inactive: -13.5%
76 | COc1cccc(CNC(=O)Cc2c(C)c3ccc(OC)c(C)c3oc2=O)c1 | inactive: 30.8%
77 | CC(C)(C(=O)c1cccnc1)c1cccnc1 | inactive: 5.81%
78 | O=C(NCc1cccc(Br)c1)c1ccc(NC(=O)N2CCCCc3ccccc32)cc1 | inactive: -11.1%
79 | COc1ccc(N2CCN(Cc3nc4c(c(=O)[nH]c(=O)n4C)n3CC(C)C)CC2)cc1 | inactive: -19.9%
80 | Cc1ccc(S(=O)(=O)c2nnn3c2nc(NCCc2ccccc2)c2sccc23)cc1 | inactive: -20%
81 | Cc1csc2nc(COc3ccc(NC(=O)COc4ccccc4)cc3)cc(=O)n12 | active: 63.9%
82 | CCOC(=O)C1CCN(C(=O)Cn2ncc3c4ccccc4n(Cc4ccc(F)cc4)c3c2=O)CC1 | inactive: -19.1%
83 | COc1ccc(S(=O)(=O)c2c(O)c3ccc(C(=O)NCc4ccc(Cl)cc4)cc3[nH]c2=O)cc1 | inactive: 5.9%
84 | C=CCc1ccccc1OCc1nc2ccccc2n1CC | inactive: -15%
85 | CCN(Cc1ccccc1)C(=O)Cn1c(=O)n(-c2cccc(C)c2)c(=O)c2c1c1cc(C)ccc1n2C | inactive: -8.37%
86 | CC(=O)N(O)CCCCCNC(=O)CCC(=O)N(O)CCCCCNC(=O)CCC(=O)N(O)CCCCCN | inactive: -0.287%
